Binding signal data for 22 molecules are collected here from publication PMC12136788.

The other results are listed elsewhere or left out.

T1: UNK ZnF1-3 (human, UniProt Q9C0B0 31-174)
T1 sequence: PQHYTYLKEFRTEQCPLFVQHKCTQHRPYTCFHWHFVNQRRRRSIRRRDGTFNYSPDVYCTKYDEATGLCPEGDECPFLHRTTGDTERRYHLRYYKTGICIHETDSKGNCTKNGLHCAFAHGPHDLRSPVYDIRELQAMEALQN

B1: chr11:90138519:90138520:+_ENSMUSG00000003948_ENSMUST00000004050|mus_hu|FALSE|FALSE (ssRNA)
RNA: GGGAGUUCUACAGUCCGACGAUCAACAAUUUUCUUCUUAAAAAGGAAGGUUUGUUAUUGCACUGACUUUUACAACCUGACAUAGUAAUUUAGAAAAAUCAUGUAGUAAAAUCUGUAAAAUUAAAAUAUAAAAGUCUGGUUUGUCAACAGAGGAUUGAGCAUCA
B2: chr14:31813938:31813939:-_ENSMUSG00000021917_ENSMUST00000162092|perfect_dup|motif|central (ssRNA)
RNA: GGGAGUUCUACAGUCCGACGAUCAACUAUAUAGACAGUCCACCCGAACUGUUCAGCCACGUACCCGUAGAUAAAUCCAACGGUUGCAGAAAAAAGAAUAAUUCCCUGAAACAUCUGUUCAGCUAGCUUCUGGCCCUUGUAAUCCAACAGAGGAUUGAGCAUCA
B3: chr11:90138519:90138520:+_ENSMUSG00000003948_ENSMUST00000004050|mus_mus|motif|central (ssRNA)
RNA: GGGAGUUCUACAGUCCGACGAUCUUGGGUUUUCUUAAAAAGGAAGUUGUAUUACUAUUGCACUGACUUUGACAACCUGACCGGCUUAAUUUAGAAAAAAAUCAUCGUAGUUAAAAUCUGUAAAAGAAAAAUACAAAAAUUUCUCAACAGAGGAUUGAGCAUCA
B4: chr4:81936313:81936314:-_ENSMUSG00000008575_ENSMUST00000064770|mus_hu|FALSE|FALSE (ssRNA)
RNA: GGGAGUUCUACAGUCCGACGAUCCCCACAAAAAGUACCCAAAGAACGUUAUCCUCCAACCGGGCACAAUAAAACCUUCACUAACAUUCUGGCCCAGUCUGGGGUUGAUCCCAGAGGCCUGAACUCUAGAAAUUAAGUAACUGUCAACAGAGGAUUGAGCAUCA
B5: chr1:229631753:229631754:-_ENSG00000069248_ENST00000261396|hu_hu|FALSE|FALSE (ssRNA)
RNA: GGGAGUUCUACAGUCCGACGAUCAUGCUUUUCUGAAGAAUCAUCUAAUUCCCAUUUACUGAUGUUUGAACUCGUCAGGCUAUAAAAGCUUGAUCUCUCUCUAUCCCAGAGAACACUUGAAAGUGUGAGAUCACUACUAGGAGACAACAGAGGAUUGAGCAUCA
B6: chr1:163172661:163172662:-_ENSG00000143248_ENST00000313961|hu_hu|FALSE|FALSE (ssRNA)
RNA: GGGAGUUCUACAGUCCGACGAUCGCUGCAAGUCCUUUGCACAUUUUGGCAGGUGGCUUAGCUCCUCCGCUUUAAGUACAACUUCUUAACAGCAGAGCCAGUCUUUGAAAACUUCAAAACUGUCUGGGAUGCCUUUCCUCCUGACAACAGAGGAUUGAGCAUCA
B7: chr4:148551591:148551592:-_ENSMUSG00000063077_ENSMUST00000060537|mus_hu|mus_mus_mus_hu_False|8_48 (ssRNA)
RNA: GGGAGUUCUACAGUCCGACGAUCACCUGACAAAAUUAAAUAUCCCUGUAAAUUAGACAAUAAGCAGCAGGCAACAAAGUCUUUGCUUUGAAAUAUGUGCCAGGAAAAGUCAUCUUGUUUUUAGAUCACACCUUUCAGUUCACACAACAGAGGAUUGAGCAUCA
B8: chr5:50689391:50689392:+_ENSG00000016082_ENST00000230658|hu_hu|motif|central (ssRNA)
RNA: GGGAGUUCUACAGUCCGACGAUCAAUAGGACUGGCUACCAUGCUGUUAGGUGUAUCUGGAAGUUGAGAGGACAUUGAUGCGGCUUCACUGCCAGUGGAAUUAGAGCCCGGUCCUCCUUCUGAAAAAUUGACCAGUUGCUGAAACAACAGAGGAUUGAGCAUCA
B9: 56417614_56417734_8254_CDS_ENSG00000151914_ENST00000244364|human|control|control (ssRNA)
RNA: GGGAGUUCUACAGUCCGACGAUCCAAGGCCUGAAGUGAUUUCUGCUGAGUUUGCAACAUGGUCAGGUAUUUGUUACUGUAAGCCUGGGAUCCCAGCGAAUCAUGGAUAUCUAGCUGCUCCUUUGCACACUGAAGCUGCCUUUUCAACAGAGGAUUGAGCAUCA
B10: chr22:19452774:19452775:-_ENSG00000070010_ENST00000399523|hu_hu|hu_hu_hu_mus_False|1_8 (ssRNA)
RNA: GGGAGUUCUACAGUCCGACGAUCCUUCUCAUUGUAGUUGAUAGCAAUCACAUCUCCAGUCGUCAGACAGGCGAAGUUUCUCAAUGCAUUUUCUAAUACCGCUUUAGGGUUGGUAAUAUCCAGGAAGUCAGGGCUCUGAGGUUGCAACAGAGGAUUGAGCAUCA
B11: chr17:45761549:45761550:+_ENSG00000108424_ENST00000290158|hu_hu|FALSE|FALSE (ssRNA)
RNA: GGGAGUUCUACAGUCCGACGAUCGACAUGGAAGGGAGGAUAUAAACGAGGAGUUGGAGAAAAACGCAAGCCCAGUUUUUGCUAGAGUGGAAAUGAAAGUGGGAAUGAGGGUCUUGUUUUUAGUCCUCUAAGGACCAGGAAGCACAACAGAGGAUUGAGCAUCA
B12: chr14:90871201:90871202:+_ENSG00000198668_ENST00000553542|hu_mus|motif|central (ssRNA)
RNA: GGGAGUUCUACAGUCCGACGAUCCGACCAAUACAUGCAGACUUUGUGUGUGGACAGAGGGGCUUCUGACAUUCAGCUUCGCGGGAUACAAACAGAAUGAAGAAAUGAACUUUUUCUUUUUUUUUCUUUUUUUUGUAAGAGGUACAACAGAGGAUUGAGCAUCA
B13: chr5:77712431:77712432:+_ENSG00000085365_ENST00000538629|hu_hu|motif|central (ssRNA)
RNA: GGGAGUUCUACAGUCCGACGAUCCCAAUUAUUUUUUCUACCAUGUUGACUGAGGUUUUGCAUUUCUCGUUCCCGACGAUCGGAUUCUGCGGCUUUUCUUUCUAGUUCUUCCUGGCGCUUAAGAAGUUCAGCUUGGGCCAAUGCCAACAGAGGAUUGAGCAUCA
B14: 136387362_136387482_376_3pUTR_ENSMUSG00000051391_ENSMUST00000055808|mouse|control|control (ssRNA)
RNA: GGGAGUUCUACAGUCCGACGAUCGACCAUCUCGAUCUUCUUCUCGUUGCCGUCCGCAGACGUCUUCUGCUCGAUGCUGCUGAUGACCCUCCAGGAGGAGCGGCGAGCCCCCACCACGUUCUUGUAGGCCACCGACAGGAGGUUCAACAGAGGAUUGAGCAUCA
B15: 94933556_94940741_412_3pUTR_ENSG00000117528_ENST00000370214|human|control|control (ssRNA)
RNA: GGGAGUUCUACAGUCCGACGAUCGCUCAUUUAACCCAUACUUCAAGAAGUUAUUAACCAGAGAGAUAAGAGGCAUGGCAGCGAUGAAGUUGAGUAAGUAUCUCUUGAAAUCUUUCCUGCUACGACCAAUGAUACCACUUUCAACAACAGAGGAUUGAGCAUCA
B16: chr7:71034872:71034873:-_ENSMUSG00000052040_ENSMUST00000063694|mus_hu|FALSE|FALSE (ssRNA)
RNA: GGGAGUUCUACAGUCCGACGAUCCAUCAAAAUAGGUACUCAUCAAAACAGGUAUCUCUGGCAAGAUACCCUGAGUCCACCCCAAUCCCCCCACCCCCCCCAACACACGCGUGUGUGCUCACGCGCGCACACACCCACACGCACCAACAGAGGAUUGAGCAUCA
B17: chr7:56126124:56126125:+_ENSG00000146731_ENST00000540286|hu_hu|FALSE|FALSE (ssRNA)
RNA: GGGAGUUCUACAGUCCGACGAUCUUGAUUAAUAACAACAAAUCCUUUAUCUGAAUCGCCACAGACUUUCCUUUUCAGUUCUAUUAUUUUUUUAACCCUAUCUUCAAUGAAUUUUCUUUCAGCUUUCACGAGUUUUUCUCUCUCCAACAGAGGAUUGAGCAUCA
B18: chr4:144460044:144460045:+_ENSG00000153147_ENST00000283131|hu_mus|hu_hu_hu_mus_False|68_68 (ssRNA)
RNA: GGGAGUUCUACAGUCCGACGAUCACGGUCCAUAGCCUGAAGAUCAACUUGCGGAUUCCAAUCUGAGUCAUACAAAAUGACUACAUCAGCAGUUGCAAGAUUGAUGCCCAGACCACCAGCACGUGUGCUUAGCAUAAAUACAAACAACAGAGGAUUGAGCAUCA
B19: chr4:148554787:148554788:-_ENSMUSG00000063077_ENSMUST00000060537|mus_hu|motif|central (ssRNA)
RNA: GGGAGUUCUACAGUCCGACGAUCUCUCAGCACAAGAAAAAAGAAAAGAGUACAGAGCAAUGGAGAUGGGGAACGGGAGAGCGGGAAAAGUGCUGGACAAGGAGGGAGAAGUAGUUAAGCCACAGGAUUACAUACAAGAGUCACCAACAGAGGAUUGAGCAUCA
B20: 27475716_27475836_1197_3pUTR_ENSMUSG00000021877_ENSMUST00000022429|mouse|control|control (ssRNA)
RNA: GGGAGUUCUACAGUCCGACGAUCAUGAUAAAGGUCUCAGUAAAGUAUCAAGGGAAUAACUUUAAAACAUUAUUGUUUUGGGCUCAAAAACCACUCAGAUCUGUCUAAAGGUGUCAGGAUAGCUCUGUAUCCAGGCAUUUAGGUCAACAGAGGAUUGAGCAUCA
B21: chr11:47074021:47074022:+_ENSG00000149179_ENST00000278460|hu_hu|motif|central (ssRNA)
RNA: GGGAGUUCUACAGUCCGACGAUCGCCAUUUUUGCCCACAGUUCGGAAGCAUCUCCAGAAGGCCCGUAAAAAUGAUACCCGGUUGUGGGGGGUGGCUUGGACGAAGCUGAAUUCUCGAAAGAGAAUGUGUGUUCCCUGGCAUACCAACAGAGGAUUGAGCAUCA
B22: chr4:95202638:95202639:+_ENSG00000163104_ENST00000354268|hu_hu|FALSE|FALSE (ssRNA)
RNA: GGGAGUUCUACAGUCCGACGAUCUAAUAGAACCUCUAAGAUAUCCAGCAUCAUGGUAAAUUGGCUAAAUAACACAACUCUAUCACCCUUCUGUUUCAAUUCAGACAAGAUGCAUCCUAAAACUCGAAAUUUUCCAGAAUCUAACAACAGAGGAUUGAGCAUCA

For this assay, the target named is T1, UNK ZnF1-3. Briefly: nsRBNS (natural sequence RNA bind-n-seq); RBNS binding buffer (assumed for nsRBNS): 25 mM Tris pH 7.5, 150 mM KCl, 3 mM MgCl2, 0.01% Triton X-100, 500 ug/ml BSA, 20 U/ml SUPERase-In, 4 C; UNK is unkempt and MSI1 is Musashi-1; names of the RNAs are library labels; protein concentration not given here; high values mean tight binding.
For the molecule B1, the binding signal stood at 2.29 enrichment R.
The figure for B2 is 1.33 enrichment R.
Then B3, with 2.06 enrichment R; and B4, with 1.13 enrichment R; and B5, with 0.773 enrichment R.
The figure for B6 is 0.787 enrichment R; for B7 it is 1.16 enrichment R.
As for B8, the binding signal amounted to 1.72 enrichment R.
In the case of B9, the binding signal was found to be 0.768 enrichment R.
The figure for B10 is 0.893 enrichment R; for B11 it is 2.36 enrichment R; for B12 it is 1.36 enrichment R.
The figure for B13 is 0.319 enrichment R; for B14 it is 0.701 enrichment R.
The figure for B15 is 1.56 enrichment R; for B16 it is 1.64 enrichment R.
In turn, B17 gave a binding signal of 0.518 enrichment R.
Then B18, with 0.906 enrichment R; and B19, with 2.83 enrichment R.
Then B20, with 0.77 enrichment R; and B21, with 1.86 enrichment R; and B22, with 1.24 enrichment R.
